# The list shows a part of the results. Many values rest on one well or one pass, so single values are uncertain.
# Key:
# Test in all cases: cell count relative to DMSO control; melanoma cells; higher = more viable cells
# Settings in all cases: library dose: low library concentration; 72 h
# WM115 = tested on: WM115
# WM1716 = tested on: WM1716
# WM1745 = tested on: WM1745
# WM3526 = tested on: WM3526
# WM3619 = tested on: WM3619
# WM451Lu = tested on: WM451Lu
# 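Also: cell number obtained by counting DAPI-stained nuclei in high-throughput microscope images with image analysis software, screen run in 1,536-well plates.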
SMILES,cell count (WM115),cell count (WM1716),cell count (WM1745),cell count (WM3526),cell count (WM3619),cell count (WM451Lu)
"Cn1c(Nc2ccc(C(F)(F)F)cc2)nc2cc(Oc3ccnc(-c4ncc(C(F)(F)F)[nH]4)c3)ccc21 + Cc1ccc(NC(=O)c2cccc(N(C)C)c2)cc1NC(=O)c1ccc(O)cc1 [ZM336372] (first compound 0.08 µM, partner dose 2 µM)",50.7%,71.2%,64.1%,43.1%,82%,84%
"C#Cc1cccc(Nc2ncnc3cc(OCCOC)c(OCCOC)cc23)c1 [erlotinib] + Cc1ccc(NC(=O)c2cccc(N(C)C)c2)cc1NC(=O)c1ccc(O)cc1 [ZM336372] (first compound 0.8 µM, partner dose 2 µM)",98.8%,92.5%,87.3%,89.1%,96.9%,97.1%
"C#Cc1cccc(Nc2ncnc3cc(OCCOC)c(OCCOC)cc23)c1 [erlotinib] + O=C(CCCCCCC(=O)Nc1ccccc1)NO [vorinostat] (first compound 0.8 µM, partner dose 0.08 µM)",89.3%,100%,79.6%,71.8%,79.3%,97.4%
"O=C(CCCCCCC(=O)Nc1ccccc1)NO [vorinostat] + CC(C)CCN1c2nc(Nc3cc(F)c(O)c(F)c3)ncc2N(C)C(=O)C1C [BID1870] (first compound 0.08 µM, partner dose 0.2 µM)",91%,109%,100%,88%,95.5%,88.1%
"Clc1ccc(Nc2nnc(Cc3ccncc3)c3ccccc23)cc1 [vatalanib] + O=C(O)C(=O)Nc1sc2c(c1C(=O)O)CCNC2 [TCS401] (first compound 2 µM, partner dose 1.66667 µM)",102%,97.3%,83.8%,107%,112%,95.7%
"OCc1c[nH]c2ccccc12 [Indole-3-carbinol] + N#Cc1c(O)c2c(-c3ccc(-c4ccccc4O)cc3)csc2[nH]c1=O [A769662] (first compound 0.8 µM, partner dose 2 µM)",116%,101%,113%,98%,106%,107%
"COCC[n+]1c2c(n(Cc3cnccn3)c1C)C(=O)c1ccccc1C2=O + N#Cc1c(O)c2c(-c3ccc(-c4ccccc4O)cc3)csc2[nH]c1=O [A769662] (first compound 0.0004 µM, partner dose 2 µM)",92.5%,96.8%,98.1%,91.3%,127%,100%
"Nc1cccc2c1CN(C1CCC(=O)NC1=O)C2=O (configuration not stated) [lenalidomide] + COc1ccc(COc2ccc(Cc3cnc(N)nc3N)cc2OC)cc1 [GW2580] (first compound 1 µM, partner dose 1 µM)",103%,102%,91.4%,78.8%,110%,92%
"C#Cc1cccc(Nc2ncnc3cc(OCCOC)c(OCCOC)cc23)c1 [erlotinib] + Cc1nc(Nc2ncc(C(=O)Nc3c(C)cccc3Cl)s2)cc(N2CCN(CCO)CC2)n1 [dasatanib] (first compound 0.8 µM, partner dose 0.004 µM)",73.6%,87.1%,70.5%,97.1%,97.4%,91.3%
"OCc1c[nH]c2ccccc12 [Indole-3-carbinol] + O=c1cc(-c2cccc3c2Sc2ccccc2S3)oc(N2CCOCC2)c1 [KU55933] (first compound 0.8 µM, partner dose 1 µM)",120%,96.3%,92.6%,109%,82.9%,146%
"O=C(CCCCCCC(=O)Nc1ccccc1)NO [vorinostat] + O=C(Nc1ccccc1)c1cc([N+](=O)[O-])ccc1Cl [GW9662] (first compound 0.08 µM, partner dose 2 µM)",96.6%,97.8%,102%,101%,90.3%,96.3%
"O=C(CCCCCCC(=O)Nc1ccccc1)NO [vorinostat] + CN(NC(=O)CC(=O)NN(C)C(=S)c1ccccc1)C(=S)c1ccccc1 [STA4783] (first compound 0.08 µM, partner dose 0.006 µM)",70.9%,56%,51.2%,73%,86.7%,110%
"Nc1cccc2c1CN(C1CCC(=O)NC1=O)C2=O (configuration not stated) [lenalidomide] + Cc1cc(N2CCOCC2)cc2[nH]c(-c3c(NC[C@@H](O)c4cccc(Cl)c4)cc[nH]c3=O)nc12 [BMS536924] (first compound 1 µM, partner dose 0.2 µM)",91.7%,95.8%,76.1%,83.9%,93.1%,95.6%
"Clc1ccc(Nc2nnc(Cc3ccncc3)c3ccccc23)cc1 [vatalanib] + Cc1nc(Nc2ncc(C(=O)Nc3c(C)cccc3Cl)s2)cc(N2CCN(CCO)CC2)n1 [dasatanib] (first compound 2 µM, partner dose 0.004 µM)",70.6%,74.5%,70.6%,98.4%,89.1%,60.7%
"Nc1cccc2c1CN(C1CCC(=O)NC1=O)C2=O (configuration not stated) [lenalidomide] + Cn1nnc2c(C(N)=O)ncn2c1=O [temozolomide] (first compound 1 µM, partner dose 2 µM)",82.9%,104%,79.5%,96.7%,108%,94.9%
"O=C(CCCCCCC(=O)Nc1ccccc1)NO [vorinostat] + CCc1ccc(CCOc2ccc(CC3SC(=O)NC3=O)cc2)nc1 [pioglitazone] (first compound 0.08 µM, partner dose 2 µM)",92.8%,99.5%,103%,96.2%,90.8%,91.7%
"Nc1cccc2c1CN(C1CCC(=O)NC1=O)C2=O (configuration not stated) [lenalidomide] + Cc1ccc(NC(=O)c2cccc(N(C)C)c2)cc1NC(=O)c1ccc(O)cc1 [ZM336372] (first compound 1 µM, partner dose 2 µM)",114%,98%,109%,106%,101%,100%
"OCc1c[nH]c2ccccc12 [Indole-3-carbinol] + Cc1ccc(NC(=O)c2cccc(N(C)C)c2)cc1NC(=O)c1ccc(O)cc1 [ZM336372] (first compound 0.8 µM, partner dose 2 µM)",97.7%,109%,110%,100%,82.3%,84.5%
"COCC[n+]1c2c(n(Cc3cnccn3)c1C)C(=O)c1ccccc1C2=O + Oc1nc(-c2ccc(C(F)(F)F)cc2)nc2c1CSCC2 [XAV939] (first compound 0.0004 µM, partner dose 2 µM)",78.8%,71.3%,85%,102%,90.7%,85.4%
"Clc1ccc(Nc2nnc(Cc3ccncc3)c3ccccc23)cc1 [vatalanib] + O=C(CCCCCCC(=O)Nc1ccccc1)NO [vorinostat] (first compound 2 µM, partner dose 0.08 µM)",86.8%,94%,90.9%,86%,88.4%,88.5%
"OCc1c[nH]c2ccccc12 [Indole-3-carbinol] + COc1ccc2c(c1)CCC1C2CCC2(C)C(NCCCCCCN3C(=O)C=CC3=O)CCC12 [U73122] (first compound 0.8 µM, partner dose 0.4 µM)",100%,102%,106%,101%,108%,94.5%
"Clc1ccc(Nc2nnc(Cc3ccncc3)c3ccccc23)cc1 [vatalanib] + COc1ccc2c(c1)CCC1C2CCC2(C)C(NCCCCCCN3C(=O)C=CC3=O)CCC12 [U73122] (first compound 2 µM, partner dose 0.4 µM)",64.9%,72.3%,90.1%,53.9%,77.4%,86.2%
"C#Cc1cccc(Nc2ncnc3cc(OCCOC)c(OCCOC)cc23)c1 [erlotinib] + O=S(=O)(c1ccccc1)N(CC(F)(F)F)c1ccc(C(O)(C(F)(F)F)C(F)(F)F)cc1 [T0901317] (first compound 0.8 µM, partner dose 1.4 µM)",85.5%,81%,63.1%,88.7%,125%,92.8%
"O=C(CCCCCCC(=O)Nc1ccccc1)NO [vorinostat] + O=S(=O)(c1ccccc1)N(CC(F)(F)F)c1ccc(C(O)(C(F)(F)F)C(F)(F)F)cc1 [T0901317] (first compound 0.08 µM, partner dose 1.4 µM)",91.7%,116%,73.9%,96.4%,72.4%,83%
"COCC[n+]1c2c(n(Cc3cnccn3)c1C)C(=O)c1ccccc1C2=O + O=c1cc(-c2cccc3c2Sc2ccccc2S3)oc(N2CCOCC2)c1 [KU55933] (first compound 0.0004 µM, partner dose 1 µM)",94.1%,94%,86.6%,88%,103%,114%
"Clc1ccc(Nc2nnc(Cc3ccncc3)c3ccccc23)cc1 [vatalanib] + C[C@@H]1CCN(C(=O)CC#N)C[C@@H]1N(C)c1ncnc2[nH]ccc12 [CP690550] (first compound 2 µM, partner dose 1 µM)",97.3%,101%,88%,104%,83.1%,80.3%
"Cn1c(Nc2ccc(C(F)(F)F)cc2)nc2cc(Oc3ccnc(-c4ncc(C(F)(F)F)[nH]4)c3)ccc21 + COCC[n+]1c2c(n(Cc3cnccn3)c1C)C(=O)c1ccccc1C2=O [YM155] (first compound 0.08 µM, partner dose 0.0004 µM)",52.7%,76.8%,68.9%,67.6%,59.9%,86.4%

# From the supplement of paper PMC4604168 (melanoma cell lines)
